In PubChem BioAssay (NCI):
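1) Cells in 96-well plates. 2) Compound, 48 h, 5 concentrations. 3) Linear interpolation between surrounding doses. 4) Unreached endpoint = highest concentration. Abbreviation: GI50, concentration required for 50% inhibition of growth. The concentration for full growth arrest is given as TGI.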

System: NCI-H322M lung
Experiment: inhibition of tumour cell growth, NCI panel, 48 h

Structure (SMILES)	GI50 [µM]	TGI [µM]
COc1ccccc1[C@H]1C(C(=O)c2ccc(Cl)cc2)C2(N[C@@H]1c1ccccc1)C(=O)Nc1ccccc12 (stereo not given in full)	3.58	57.2
C/C(=N\N=C\c1cc([N+](=O)[O-])ccc1Cl)c1ccc2c(c1)Nc1ccccc1S2	17.2	> 100
CO[C@H]1CSS[C@@H]1Cn1nc(-c2ccc(Oc3ccccc3)cc2)c2c(N)ncnc21	10.5	70.8
CC1[C@H]2[C@H](C[C@H]3[C@@H]4CC=C5c6sc(Nc7ccccc7F)nc6CC[C@]5(C)[C@H]4CC[C@@]32C)O[C@]12CC[C@@H](C)CO2 (stereo not given in full)	> 100	> 100
COc1ccc(NC(=O)N/N=C/c2c[nH]c3ccccc23)cc1	5.45	> 100
